This is a selection; strong and weak results do not stand in their true shares. The list includes weakly bound sequences.
Experiments:
GST-Ap-NF-kB RHD = target: T1, GST-Ap-NF-kB RHD (UniProt A0A913YAJ5); assay: protein-binding microarray (PBM); settings: PBM: ~300 nM protein, 6 mM HEPES pH 7.8, 80 mM KCl, 0.5 mM EDTA, 0.5 mM EGTA, 6% glycerol, 35 ng/ul poly-dIdC, 1% milk, 1 h, room temperature; high values mean tight binding; double strand, one strand shown
T1 sequence: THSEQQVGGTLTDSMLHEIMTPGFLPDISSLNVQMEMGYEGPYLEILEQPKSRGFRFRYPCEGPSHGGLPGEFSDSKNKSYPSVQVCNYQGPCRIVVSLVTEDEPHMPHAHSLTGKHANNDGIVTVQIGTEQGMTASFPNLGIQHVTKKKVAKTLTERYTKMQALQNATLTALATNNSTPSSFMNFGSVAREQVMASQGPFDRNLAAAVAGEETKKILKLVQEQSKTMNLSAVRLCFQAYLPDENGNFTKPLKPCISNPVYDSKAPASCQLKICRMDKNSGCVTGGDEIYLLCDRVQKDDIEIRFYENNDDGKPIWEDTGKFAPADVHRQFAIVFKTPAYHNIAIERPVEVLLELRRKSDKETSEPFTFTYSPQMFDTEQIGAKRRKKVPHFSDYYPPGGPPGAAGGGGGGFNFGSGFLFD

GST-Co-NF-kB = target: T2, GST-Co-NF-kB (UniProt F1ARL5); assay: protein-binding microarray (PBM); settings: PBM: ~300 nM protein, 6 mM HEPES pH 7.8, 80 mM KCl, 0.5 mM EDTA, 0.5 mM EGTA, 6% glycerol, 35 ng/ul poly-dIdC, 1% milk, 1 h, room temperature; Ap Aiptasia and Nv Nematostella (sea anemones) / Co Capsaspora / Aq Amphimedon (sponge) / Dm Drosophila / Hu human; RHD is the Rel homology domain; high values mean tight binding; most listed sequences are background and not binding sites; double strand, one strand shown
T2 sequence: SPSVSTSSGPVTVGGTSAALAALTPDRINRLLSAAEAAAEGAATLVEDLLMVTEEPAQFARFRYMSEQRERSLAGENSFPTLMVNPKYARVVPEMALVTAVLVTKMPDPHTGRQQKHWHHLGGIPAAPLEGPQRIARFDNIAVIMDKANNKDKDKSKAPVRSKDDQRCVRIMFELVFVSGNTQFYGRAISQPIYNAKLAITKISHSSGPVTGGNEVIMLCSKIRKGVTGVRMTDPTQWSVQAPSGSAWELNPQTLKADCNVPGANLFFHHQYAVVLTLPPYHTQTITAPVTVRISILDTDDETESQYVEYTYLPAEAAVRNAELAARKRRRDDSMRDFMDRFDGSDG

Sequence	binding signal (GST-Ap-NF-kB RHD) [z-score]	binding signal (GST-Co-NF-kB) [z-score]
CCGATTAACATCAGGGACAGCCCTGATGTTAATCGGGTCTTGATTCGCTTGACGCTGCTG	3.43	0.0923
CCGATTAACATCAGGGGGGGAAATGATGTTAATCGGGTCTTGATTCGCTTGACGCTGCTG	6.79	10.2
CCGATTAACATCACACTTTCCCCTGATGTTAATCGGGTCTTGATTCGCTTGACGCTGCTG	6.32	7.06
CCGATTAACATCAGGGGTGGGAATGATGTTAATCGGGTCTTGATTCGCTTGACGCTGCTG	2.31	3.75
CCGATTAACATCACTAGTTTCCCTGATGTTAATCGGGTCTTGATTCGCTTGACGCTGCTG	3.06	4.16
CCGATTAACATCAAGGGGGGATGTGATGTTAATCGGGTCTTGATTCGCTTGACGCTGCTG	5.69	4.75
CCGATTAACATCAGGAAAACACCTGATGTTAATCGGGTCTTGATTCGCTTGACGCTGCTG	2.56	-0.232
CCGATTAACATCAGACATTCCCCTGATGTTAATCGGGTCTTGATTCGCTTGACGCTGCTG	7.03	5.38
CCGATTAACATCAAGGAATTTTCTGATGTTAATCGGGTCTTGATTCGCTTGACGCTGCTG	0.246	-0.11
CCGATTAACATCAGGAGTTTACCTGATGTTAATCGGGTCTTGATTCGCTTGACGCTGCTG	1.12	-0.094
CCGATTAACATCACGGGAAAACCTGATGTTAATCGGGTCTTGATTCGCTTGACGCTGCTG	4.2	5.1
CCGATTAACATCAGGAAATTCCATGATGTTAATCGGGTCTTGATTCGCTTGACGCTGCTG	0.273	-0.127
CCGATTAACATCAGGGGGAATAATGATGTTAATCGGGTCTTGATTCGCTTGACGCTGCTG	7.08	10.1
CCGATTAACATCAGGGAGCTACCTGATGTTAATCGGGTCTTGATTCGCTTGACGCTGCTG	2.89	0.628
CCGATTAACATCACCGGAAATTCTGATGTTAATCGGGTCTTGATTCGCTTGACGCTGCTG	0.664	0.234
CCGATTAACATCAAAAAAGTCCGTGATGTTAATCGGGTCTTGATTCGCTTGACGCTGCTG	0.0431	0.644
CCGATTAACATCAGATACCCCCCTGATGTTAATCGGGTCTTGATTCGCTTGACGCTGCTG	6.55	4.8
CCGATTAACATCAGGGATTCCAATGATGTTAATCGGGTCTTGATTCGCTTGACGCTGCTG	1.68	0.681
CCGATTAACATCAAAAGTTCCCCTGATGTTAATCGGGTCTTGATTCGCTTGACGCTGCTG	8.35	9.64
CCGATTAACATCAAGGTATTTCCTGATGTTAATCGGGTCTTGATTCGCTTGACGCTGCTG	0.974	0.36

Sequence	binding signal (GST-Ap-NF-kB RHD) [z-score]	binding signal (GST-Co-NF-kB) [z-score]
CCGATTAACATCACATTCTCCCCTGATGTTAATCGGGTCTTGATTCGCTTGACGCTGCTG	4.7	6.71
CCGATTAACATCAAAAAAGACCCTGATGTTAATCGGGTCTTGATTCGCTTGACGCTGCTG	2.93	-0.0672
CCGATTAACATCACCCCCCCTGATGATGTTAATCGGGTCTTGATTCGCTTGACGCTGCTG	4.83	5.83
CCGATTAACATCAATAATTTCCCTGATGTTAATCGGGTCTTGATTCGCTTGACGCTGCTG	4.38	4.82
CCGATTAACATCAGGGGGTACACTGATGTTAATCGGGTCTTGATTCGCTTGACGCTGCTG	4.19	4.33
CCGATTAACATCAAAGATCCCCCTGATGTTAATCGGGTCTTGATTCGCTTGACGCTGCTG	7.86	6.69
CCGATTAACATCACGGGTATTCCTGATGTTAATCGGGTCTTGATTCGCTTGACGCTGCTG	4.85	1.3
CCGATTAACATCACCGTGGGAAATGATGTTAATCGGGTCTTGATTCGCTTGACGCTGCTG	1.9	3.18
CCGATTAACATCACGGGAGTCCCTGATGTTAATCGGGTCTTGATTCGCTTGACGCTGCTG	5.38	1.57
CCGATTAACATCAAAATCACCCCTGATGTTAATCGGGTCTTGATTCGCTTGACGCTGCTG	4.66	5.02
CCGATTAACATCAGGAATATACCTGATGTTAATCGGGTCTTGATTCGCTTGACGCTGCTG	0.131	-0.25
CCGATTAACATCAAACCCCCCCGTGATGTTAATCGGGTCTTGATTCGCTTGACGCTGCTG	6.76	5.57
CCGATTAACATCAGGGGGATTAATGATGTTAATCGGGTCTTGATTCGCTTGACGCTGCTG	6.25	6.77
CCGATTAACATCAGGCAACCCCCTGATGTTAATCGGGTCTTGATTCGCTTGACGCTGCTG	5.96	2.03
CCGATTAACATCAGCAATTCCCCTGATGTTAATCGGGTCTTGATTCGCTTGACGCTGCTG	7.03	5.7
CCGATTAACATCAGGGACATCCCTGATGTTAATCGGGTCTTGATTCGCTTGACGCTGCTG	5.51	0.84
CCGATTAACATCAGGAAGTTACCTGATGTTAATCGGGTCTTGATTCGCTTGACGCTGCTG	0.577	0.376
CCGATTAACATCAATTGGGAAATTGATGTTAATCGGGTCTTGATTCGCTTGACGCTGCTG	0.737	1.8
CCGATTAACATCAGGAATCTACCTGATGTTAATCGGGTCTTGATTCGCTTGACGCTGCTG	0.929	-0.308

Source: article PMC5700166
